Assay results published in the antibiotic and cytotoxicity screens of Wong et al. (2023).
Some of the results follow.

tested on: S. aureus RN4220; experiment: growth inhibition call (relative growth <= 0.2); settings: 50 µM

Growth inhibition call, inactive:
C[C@@H]1CN([C@H](C)CO)C(=O)c2cc(NC(=O)Cc3ccccc3)ccc2O[C@@H](C)CCCCO[C@H]1CN(C)C(=O)CCC(F)(F)F, Cc1noc(C)c1NC(=O)N(C)C[C@@H]1Oc2ncc(Br)cc2C(=O)N([C@@H](C)CO)C[C@H]1C, C[C@@H]1CN([C@@H](C)CO)C(=O)Cc2cc(NC(=O)Nc3ccc(C(F)(F)F)cc3)ccc2O[C@@H]1CN(C)C(=O)Nc1ccccc1, COc1ccc(S(=O)(=O)Nc2ccc3c(c2)C(=O)N(C)C[C@@H](OC)[C@H](C)CN(C)[C@H](C)CO3)cc1, COc1ccc(S(=O)(=O)N(C)C[C@H]2OCCCC[C@H](C)Oc3ccc(NC(=O)NC4CCCCC4)cc3C(=O)N([C@H](C)CO)C[C@H]2C)cc1, Cc1cc(C(=O)Nc2cccc3c2O[C@@H](CN(C)S(=O)(=O)c2ccc(F)cc2)[C@@H](C)CN([C@H](C)CO)C3=O)n(C)n1, COc1ccccc1C(=O)Nc1ccc2c(c1)C(=O)N(C)[C@H]1CC[C@@H](CC(=O)NCCc3ccncc3)O[C@@H]1CO2, CCOC(=O)c1c(CNCCN(CC)CC)n(-c2ccccc2)c2cc(Br)c(OC)cc12, CC(=O)N1CC(=O)N(c2cnn(C)c2)C[C@]12CCN(C(=O)c1cnc(C)cn1)C2, O=C1OCc2cc(-n3cnnn3)ccc21, O=C1CC[NH][Zn][O]C(=O)[C@H](Cc2cnc[nH]2)N1, CCN(CC)c1ccc(N2CC=C[C@@]34O[C@@H]5/C=C\CCCOC(=O)[C@@H]5[C@H]3C(=O)N(CCO)[C@@H]4C2=O)cc1, C[C@H]1CN([C@@H](C)CO)C(=O)c2c(c3ccccc3n2C)-c2ccccc2CO[C@@H]1CN(C)CC1CCCCC1, C[C@H]1CN([C@@H](C)CO)C(=O)c2cc(-c3cccc(C#N)c3)cnc2O[C@@H]1CN(C)C(=O)c1cnccn1, C[C@H]1CCCCO[C@H](CN(C)Cc2ccc3c(c2)OCO3)[C@@H](C)CN([C@@H](C)CO)C(=O)c2cc(NS(=O)(=O)c3ccc(Cl)cc3)ccc2O1, C[C@@H]1CN([C@H](C)CO)C(=O)c2cc(NC(=O)Nc3cccc4ccccc34)ccc2O[C@@H]1CN(C)Cc1ccc(C(=O)Nc2ccccc2N)cc1, C[C@H]1CN([C@@H](C)CO)C(=O)Cc2cc(NC(=O)Cc3ccccc3)ccc2O[C@H]1CN(C)S(=O)(=O)c1cn(C)cn1, C[C@@H]1CN([C@@H](C)CO)C(=O)CCCn2cc(nn2)CO[C@H]1CN(C)S(=O)(=O)c1ccc(-c2ccccc2)cc1, C[C@H](CO)N1C[C@H](C)[C@@H](CN(C)S(=O)(=O)c2ccccc2)Oc2ccc(NS(=O)(=O)c3ccc(F)cc3)cc2C1=O, C[C@H](CO)N1C[C@H](C)[C@H](CN(C)C(=O)Nc2ccc(C(F)(F)F)cc2)OCCCC[C@H](C)Oc2ccc(NC(=O)Nc3ccc(C(F)(F)F)cc3)cc2C1=O, COc1cc(C)c2c(=O)c(-c3ccccc3)coc2c1, COc1ccc(CN(C)C[C@H]2Oc3ccc(NS(C)(=O)=O)cc3CC(=O)N([C@H](C)CO)C[C@@H]2C)cc1, C[C@@H]1CN([C@@H](C)CO)C(=O)c2cc(NS(=O)(=O)c3cccs3)ccc2O[C@H]1CN(C)CC1CC1, C[C@@H]1CCCCO[C@H](CN(C)Cc2ccc(Cl)c(Cl)c2)[C@@H](C)CN([C@H](C)CO)C(=O)c2cc(NC(=O)Nc3cccc4ccccc34)ccc2O1, Clc1ccc(C2=Nc3cccc4cccc(c34)N2)cc1, CC#CCOC(=O)C1=CCCN(C)C1, CN(C)CC(=O)N1[C@@H]2Cn3c(ccc(-c4ccncc4)c3=O)[C@H]1[C@@H](C(=O)NC1CCC1)[C@@H]2CO, CCC1(c2ccccc2)NC(=O)N(C)C1=O (stereo not given), O=C(NC1CCCCC1)[C@@H]1C(c2ccc(Cl)cc2)=C(S(=O)(=O)c2ccccc2)C(=O)N1Cc1ccc(-c2ccccc2)cc1, C[C@@H]1CN([C@H](C)CO)C(=O)c2c(c3ccccc3n2C)-c2ccccc2CO[C@H]1CN(C)C(=O)Nc1cccc(F)c1, N#CCC(=O)NN, Cc1ccc(S(=O)(=O)Nc2ccc3c(c2)C(=O)N([C@@H](C)CO)C[C@H](C)[C@@H](CN(C)C(=O)NC2CCCCC2)OCCCC[C@H](C)O3)cc1, C[C@@H]1CN([C@H](C)CO)C(=O)c2cc(NC(=O)Nc3cccc4ccccc34)ccc2O[C@@H](C)CCCCO[C@H]1CN(C)C, COc1ccc(NC(=O)N(C)C[C@H]2Oc3ccc(NC(=O)Nc4cccc5ccccc45)cc3C(=O)N([C@H](C)CO)C[C@H]2C)cc1, CN(C)C(=O)C[C@H]1CC[C@H](NC(=O)C2CC2)[C@H](CO)O1, N/C(=N/O)c1cnc2n(c1=O)CCS2, COc1cccc(NC(=O)C[C@@H]2CC[C@H]3[C@@H](COc4ccc(NC(=O)C5CCOCC5)cc4C(=O)N3C)O2)c1, CCCC#Cc1cnc2c(c1)C(=O)N([C@@H](C)CO)C[C@H](C)[C@@H](CN(C)S(=O)(=O)c1cn(C)cn1)O2, CC(C)NC(=O)N(C)C[C@H]1Oc2ccc(NS(=O)(=O)c3ccc(F)cc3)cc2C(=O)N([C@H](C)CO)C[C@H]1C, C[C@H]1CCCCO[C@H](CN(C)Cc2ccc(C(F)(F)F)cc2)[C@@H](C)CN([C@@H](C)CO)C(=O)c2cc(NS(=O)(=O)c3cccs3)ccc2O1
